Reference: patent publication US10299477B2 (priority 2015, dated 2019)

Key:
Format in all cases: in vivo
Alternaia brassicicola = test: Test Example C: Alternaria sooty spot on cabbage; conditions: for Test C control value: Alternaria sooty spot on cabbage
Excerpt: [Test Example C] Alternaria Sooty Spot on Cabbage
Seeds of a test plant (cabbage variety: Shikidori) were planted followed by cultivating until the cotyledons extended.

[1] = system: Blumeria graminis f sp. hordei; test: Test Example D: Powdery mildew on barley; conditions: for Test D control value: Powdery mildew on barley
Excerpt: [Test Example D] Powdery Mildew on Barley
After the sprayed dilutions were dried, conidia of Blumeria graminis f sp. hordei were inoculated to the plants by shaking off.

Puccinia recondita = test: Test Example E: Brown rust on wheat; conditions: for Test E control value: Brown rust on wheat
Excerpt: [Test Example E] Brown Rust on Wheat

Botrytis cinerea = test: Test Example B: Gray mold on tomato; conditions: for Test B control value: Gray mold on tomato
Excerpt: [Test Example B] Gray Mold on Tomato
Seeds of a test plant (tomato variety: Oogata Fukuju) were planted followed by cultivating until three to five first leaves (true leaves) appeared.

[2] = 250 ppm spray, preventive, control value class

| SMILES | Test C control value (Alternaia brassicicola) | Test D control value [1] | Test E control value (Puccinia recondita) | Test B control value (Botrytis cinerea) | Test C control value (Alternaria sooty spot on cabbage) (Alternaia brassicicola; [2]) | Test D control value (powdery mildew on barley) [1, 2] | Test E control value (brown rust on wheat) (Puccinia recondita; [2]) | Test B control value (gray mold on tomato) (Botrytis cinerea; [2]) |
| --- | --- | --- | --- | --- | --- | --- | --- | --- |
| CCn1c(-c2c(F)cccc2F)c(-c2cc(OC)ccc2Cl)ccc1=O [Compound 53, 5-(2-chloro-5-methoxyphenyl)-6-(2,6-difluorophenyl)-1-ethylpyridine-2(1H)-one] | H (H shows more than 50% of control values) | H (H shows more than 50% of control values) | H (H shows more than 50% of control values) | H (H shows more than 50% of control values) | – | – | – | – |
| CCN1C(=O)CCC(c2cc(OC)ccc2Cl)=C1c1c(F)cccc1F [Compound 52, 5-(2-chloro-5-methoxyphenyl)-6-(2,6-difluorophenyl)-1-ethyl-3,4-dihydropyridine-2(1H)-one] | H (H shows more than 50% of control values) | H (H shows more than 50% of control values) | H (H shows more than 50% of control values) | H (H shows more than 50% of control values) | – | – | – | – |
| CCn1c(-c2c(F)cccc2F)c(-c2cc(OC)c(Cl)c(OC)c2)ccc1=O [Compound 40] | H (H shows more than 50% of control values) | H (H shows more than 50% of control values) | H (H shows more than 50% of control values) | H (H shows more than 50% of control values) | – | – | – | – |
| Cn1c(-c2c(F)cccc2F)c(-c2ccccc2Cl)cc(Br)c1=O [Compound 79] | H (H shows more than 50% of control values) | H (H shows more than 50% of control values) | H (H shows more than 50% of control values) | H (H shows more than 50% of control values) | – | – | – | – |
| CCn1c(-c2ncc(Cl)cc2Cl)c(-c2ccc(F)cc2)ccc1=O [Compound 26] | H (H shows more than 50% of control values) | H (H shows more than 50% of control values) | H (H shows more than 50% of control values) | H (H shows more than 50% of control values) | – | – | – | – |
| CCn1c(-c2c(F)cc(Cl)cc2F)c(-c2cc(OC)cc(OC)c2)ccc1=O [Compound 119] | H (H shows more than 50% of control values) | H (H shows more than 50% of control values) | H (H shows more than 50% of control values) | H (H shows more than 50% of control values) | – | – | – | – |
| CCn1c(-c2c(F)cccc2F)c(-c2ccccc2Br)cc(Cl)c1=O [Compound 86] | H (H shows more than 50% of control values) | H (H shows more than 50% of control values) | H (H shows more than 50% of control values) | H (H shows more than 50% of control values) | – | – | – | – |
| Cn1c(-c2c(F)cccc2F)c(-c2ccccc2Br)cc(Br)c1=O [Compound 96] | H (H shows more than 50% of control values) | H (H shows more than 50% of control values) | H (H shows more than 50% of control values) | H (H shows more than 50% of control values) | – | – | – | – |
| CCn1c(-c2c(F)cccc2F)c(-c2c(Cl)c(OC)cc(OC)c2Cl)cc(Cl)c1=O [Compound 84] | L (L shows 50% or less of control values) | L (L shows 50% or less of control values) | L (L shows 50% or less of control values) | H (H shows more than 50% of control values) | – | – | – | – |
| COc1ccc(F)c(-c2ccc(=O)n(C)c2-c2c(F)cccc2F)c1F [Compound 108] | H (H shows more than 50% of control values) | H (H shows more than 50% of control values) | H (H shows more than 50% of control values) | H (H shows more than 50% of control values) | – | – | – | – |
| CCn1c(-c2c(F)cccc2F)c(-c2ccc(F)cc2Cl)cc(Cl)c1=O [Compound 62] | H (H shows more than 50% of control values) | H (H shows more than 50% of control values) | H (H shows more than 50% of control values) | H (H shows more than 50% of control values) | – | – | – | – |
| COc1cc(F)c(-c2c(-c3ccc(F)cc3Cl)cc(Br)c(=O)n2C)c(F)c1 [Compound 38] | H (H shows more than 50% of control values) | H (H shows more than 50% of control values) | H (H shows more than 50% of control values) | H (H shows more than 50% of control values) | – | – | – | – |
| Cn1c(-c2ccncc2Cl)c(-c2ccccc2)ccc1=O [Compound 12] | L (L shows 50% or less of control values) | H (H shows more than 50% of control values) | H (H shows more than 50% of control values) | L (L shows 50% or less of control values) | – | – | – | – |
| COc1ccc(F)c(-c2cc(Br)c(=O)n(C)c2-c2c(F)cccc2F)c1 [Compound 90] | H (H shows more than 50% of control values) | H (H shows more than 50% of control values) | H (H shows more than 50% of control values) | H (H shows more than 50% of control values) | – | – | – | – |
| CCN1C(=O)CCC(c2ccc(F)cc2Cl)=C1c1c(F)cc(OC)cc1F [Compound 33] | H (H shows more than 50% of control values) | H (H shows more than 50% of control values) | H (H shows more than 50% of control values) | H (H shows more than 50% of control values) | – | – | – | – |
| C=CCn1c(-c2c(F)cc(OC)cc2F)c(-c2ccc(F)cc2Cl)ccc1=O [Compound 44] | H (H shows more than 50% of control values) | H (H shows more than 50% of control values) | H (H shows more than 50% of control values) | H (H shows more than 50% of control values) | – | – | – | – |
| CCn1c(-c2c(F)cc(Cl)cc2F)c(-c2cc(OC)cc(OC)c2Br)ccc1=O [Compound 120] | H (H shows more than 50% of control values) | H (H shows more than 50% of control values) | H (H shows more than 50% of control values) | H (H shows more than 50% of control values) | – | – | – | – |
| COc1cc(OC)c(Cl)c(-c2ccc(=O)n(C)c2-c2ccccc2F)c1 [Compound 229] | – | – | – | – | H (H shows more than 50% of control values) | L (L shows 50% or less of control values) | H (H shows more than 50% of control values) | H (H shows more than 50% of control values) |
| COc1cc(OC)c(Br)c(-c2ccc(=O)n(C)c2-c2c(F)cccc2F)c1 [Compound 29] | H (H shows more than 50% of control values) | H (H shows more than 50% of control values) | H (H shows more than 50% of control values) | H (H shows more than 50% of control values) | – | – | – | – |
| COc1ccc(F)c(-c2cc(Cl)c(=O)n(C)c2-c2c(F)cccc2F)c1 [Compound 93] | H (H shows more than 50% of control values) | H (H shows more than 50% of control values) | H (H shows more than 50% of control values) | H (H shows more than 50% of control values) | – | – | – | – |
| CCn1c(-c2c(F)cccc2F)c(-c2c(F)ccc(OC)c2F)cc(Br)c1=O [Compound 105] | H (H shows more than 50% of control values) | H (H shows more than 50% of control values) | H (H shows more than 50% of control values) | H (H shows more than 50% of control values) | – | – | – | – |
| COc1ccc(Br)cc1-c1cc(Br)c(=O)n(C)c1-c1c(F)cccc1F [Compound 139] | H (H shows more than 50% of control values) | L (L shows 50% or less of control values) | H (H shows more than 50% of control values) | H (H shows more than 50% of control values) | – | – | – | – |
